# PMC4336329 (PLoS ONE, 2015)
# Screen size: about 310,000 compounds; about 14,000 (4.5%) showed an effect of 50% or more. The effect is printed as a negative number. The list shows a part of the results.
# Biological target: human ether-à-go-go-related gene (hERG) potassium channel (human, UniProt Q12809)
# Experiment: primary screen, population patch clamp on CHO cells stably expressing hERG
# 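Note: peak tail current of the secondary pulse compared with the same well before compound.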
# human ether-à-go-go-related gene (hERG) potassium channel, sequence (Q12809 whole entry, looked up): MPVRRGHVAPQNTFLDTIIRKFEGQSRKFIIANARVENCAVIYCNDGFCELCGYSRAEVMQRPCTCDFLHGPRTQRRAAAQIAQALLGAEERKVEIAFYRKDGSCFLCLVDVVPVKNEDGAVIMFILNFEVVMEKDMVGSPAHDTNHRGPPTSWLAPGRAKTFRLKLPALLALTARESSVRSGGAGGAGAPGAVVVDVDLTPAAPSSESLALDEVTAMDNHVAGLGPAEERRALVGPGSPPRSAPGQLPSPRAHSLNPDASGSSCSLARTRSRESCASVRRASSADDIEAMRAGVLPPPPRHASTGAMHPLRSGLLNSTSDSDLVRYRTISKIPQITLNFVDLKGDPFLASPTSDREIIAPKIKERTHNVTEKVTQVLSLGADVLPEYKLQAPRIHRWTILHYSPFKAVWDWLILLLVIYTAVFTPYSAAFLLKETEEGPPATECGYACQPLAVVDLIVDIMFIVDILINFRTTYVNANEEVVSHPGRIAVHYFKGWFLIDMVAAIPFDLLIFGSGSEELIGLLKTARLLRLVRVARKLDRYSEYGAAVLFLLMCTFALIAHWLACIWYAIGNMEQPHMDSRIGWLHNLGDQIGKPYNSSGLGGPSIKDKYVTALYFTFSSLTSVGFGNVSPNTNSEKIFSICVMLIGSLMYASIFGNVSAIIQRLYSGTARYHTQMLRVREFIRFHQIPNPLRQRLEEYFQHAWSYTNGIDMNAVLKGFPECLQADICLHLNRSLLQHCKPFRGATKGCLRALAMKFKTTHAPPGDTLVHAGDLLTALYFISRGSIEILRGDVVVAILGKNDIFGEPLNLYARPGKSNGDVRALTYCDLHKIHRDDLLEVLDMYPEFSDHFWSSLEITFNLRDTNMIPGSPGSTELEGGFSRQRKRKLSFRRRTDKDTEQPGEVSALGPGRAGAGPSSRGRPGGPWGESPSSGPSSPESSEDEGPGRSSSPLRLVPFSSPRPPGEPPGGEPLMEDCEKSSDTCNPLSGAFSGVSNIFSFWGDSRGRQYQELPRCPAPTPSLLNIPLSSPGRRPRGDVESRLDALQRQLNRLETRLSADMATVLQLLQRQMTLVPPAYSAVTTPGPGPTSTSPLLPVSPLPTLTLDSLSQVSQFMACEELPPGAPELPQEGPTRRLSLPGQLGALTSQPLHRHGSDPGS
row,Compound,"hERG current change (%, negative = inhibition) at 10uM"
1,COc1ccc(CCNC(=O)C(=O)NCc2ccc(C(C)C)cc2)cc1OC,7.86%
2,O=C(CCSCCc1ccccn1)Nc1ccccn1,20%
3,O=C(NC(=S)N1CCN(c2nc(-c3ccccc3)cs2)CC1)c1cncc(Br)c1,17%
4,O=C(O)CC(NNC(=O)c1ccccc1)C(=O)Nc1ccc([N+](=O)[O-])cc1 (stereo not shown),1.38%
5,O=C(Cn1c(-c2ccccn2)nc2ccccc21)N/N=C/c1ccccn1,-15.8%
6,O=C(O)/C=C/c1cnc[nH]1,20.4%
7,Cc1cc(C)c(C(=O)CN2C(=O)NC3(CCC(C)CC3)C2=O)cc1C (stereo not shown),11.1%
8,COCCn1cnc2c1c(=O)n(CC(=O)OCC(=O)NCCCc1ccccc1)c(=O)n2Cc1ccccc1,-57.9%
9,COCCCn1c(C(=O)N2CC(C)OC(C)C2)cc2c(=O)n3cccc(C)c3nc21 (stereo not shown),0.735%
10,CCc1nnc(NS(=O)(=O)c2ccc(NC(=O)/C=C/C(=O)O)cc2)s1,26.5%
11,O=c1[nH]c(=O)n(Cc2ccc(F)cc2)c(O)c1C=NCCCO,-3.23%
12,CC(NC(=O)CN(C)Cc1cccs1)c1ccccc1 (stereo not shown),-8.15%
13,COc1ccc(-c2ccc(SCC(=O)N3CCN(c4ccccc4)CC3)nn2)cc1,11.8%
14,Cc1ccc(/C=C/C(=O)N2CCN(c3ccc(F)cc3)CC2)o1,-15.8%
15,CC(C)(C)C(=O)NCc1ccc(C(=O)CSc2nnc(C3CC3)n2C2CC2)s1,6.81%
16,Cc1ccc(C(=O)NCC(=O)NCC(=O)OCc2ccc(Oc3ccc([N+](=O)[O-])cc3)cc2)cc1,-0.732%
17,Cc1cc(NC(=O)C(=O)c2c(C)[nH]c3ccccc23)no1,1.67%
18,CN(C(=O)c1ccccn1)C1(C(=O)NC2CCCCC2)CCCCC1,7.01%
19,CSc1nc(C)cc(Oc2ccccc2)n1,-7.34%
20,CCC(C)[C@H](NC(=O)C1CC(=O)N(c2ccc(OC)cc2)C1)C(=O)NC1CCCC1 (stereo partly shown),15.2%

row,Compound,"hERG current change (%, negative = inhibition) at 10uM"
1,Cc1ccc(C)c(CN2CCC(CNC(=O)Nc3ccc(Br)cc3F)CC2)c1,-73.4%
2,CC(Sc1nc(N(C)C)nc(N2CCOCC2)n1)C(=O)Nc1ccccc1 (stereo not shown),13.3%
3,Cc1cc(C)n(Cc2ccc(C(=O)O)o2)n1,11.5%
4,Clc1ccc(N=c2ssnc2Cl)nc1,11.5%
5,COC(=O)c1c(NC(=O)CN2CCN(C(=O)c3ccco3)CC2)c2c(C)cccc2n1C,-7.25%
6,O=C(c1ccc(F)cc1)c1cn[nH]c1-c1ccccc1O,3.1%
7,COc1cccc(NC(=O)CN(C)C(C)C(=O)Nc2ccc(C(C)=O)cc2)c1 (stereo not shown),-22.9%
8,CC12CN3CC(C)(CN(C1)C3c1cccs1)C2=O (stereo not shown),13.7%
9,COC(=O)c1sccc1NC(=O)CSc1ccccc1NS(=O)(=O)c1cc(Cl)ccc1Cl,12.3%
10,O=C(NC1CC1)[C@@H]1CSC2c3ccccc3C(=O)N21 (stereo partly shown),-6.1%
11,O=C1CCCC/C1=C\Nc1ccc(S(=O)(=O)Nc2cnc3ccccc3n2)cc1,-12%
12,CCC(C)(C)NC(=O)C(c1ccccc1F)N(Cc1ccco1)C(=O)Cn1nnc2ccccc21 (stereo not shown),-11.2%
13,Cc1ccc(NS(=O)(=O)c2ccc3c(c2)N(C)CCO3)cc1,-7.41%
14,C=CCNC(=O)C1CC(=O)N(c2ccc(OCC(=O)Nc3ccc(OC)cc3)cc2)C1 (stereo not shown),-3.5%
15,CC(=O)Nc1cc(-c2nn(C)c(=O)c3ccccc23)ccc1N1CCOCC1,28.2%
16,Cc1cc(C)c(C(=O)c2ccc(C(=O)N(C(C)C)C(C)C)cc2)c(C)c1,-24.2%
17,Cc1nnc(-c2ccccc2)o1,18.7%
18,Cc1ccc(OCCSC2=NN2c2cc(C)nc(N)n2)cc1,-15.1%
19,CCOC(=O)C1(Cc2ccccc2C)CCCN(S(C)(=O)=O)C1 (stereo not shown),16.5%
20,CCCCCCC1CC(CCc2nc(=S)[nH][nH]2)C(=O)O1 (stereo not shown),10.9%

row,Compound,"hERG current change (%, negative = inhibition) at 10uM"
1,COC(=O)c1ccccc1NC(=S)NC(=O)C1CCCCC1,-3.24%
2,CCN1CCN(CC(=O)Nc2cc(C)c(C)cc2[N+](=O)[O-])CC1,-25.7%
3,COc1ccc(S(=O)(=O)N2CCC(C(=O)N3CCOCC3)CC2)cc1Cl,3.74%
4,Cc1ccc(C(=O)c2ccccc2C(=O)O)c(O)c1,1.4%
5,N#Cc1ccc(C2=CC(=O)C[C@H](c3ccc4c(c3)OCO4)C2)cc1,-70%
6,Cc1ccsc1C(=O)N1CCc2ccccc2C1,1.54%
7,CC(C)(C)NC(=O)NC(=O)COC(=O)CNC(=O)C1CCCCC1,6.73%
8,Cc1cccc(-c2nc(C#N)c(N3CCC(C)CC3)o2)c1,15.6%
9,CCOC(=O)c1ccccc1NC(=O)COC(=O)CCC(=O)c1ccc(C)cc1,2.2%
10,C[C@@H]1CC=C[C@H]2[C@H]1C(=O)N(Cc1ccccc1)[C@H]2c1ccc(-c2ccc(F)cc2)cc1F,-0.198%
11,Nc1cccc2cnccc12,17.5%
12,CC(C)CC(NC(=O)C1CCC(C)CC1)C(=O)NCCN1CCOCC1 (stereo not shown),14.5%
13,CN=CC1=C(O)c2ccccc2C1=O,14.7%
14,Clc1cccc2sc(N3CCN(c4ccccc4)CC3)nc12,6.53%
15,Cc1ccc(NC(NC(=O)c2cccs2)C(Cl)(Cl)Cl)cc1 (stereo not shown),17.2%
16,CSc1ccc(C(=O)NC2CCSc3ccccc32)cc1 (stereo not shown),14.4%
17,Cc1cccc(C(=O)c2cn[nH]c2-c2ccc(C)cc2O)c1,17.7%
18,Cc1ccc(S(=O)(=O)c2cc(OC(=O)c3ccco3)ccc2OC(=O)c2ccco2)cc1,-3.98%
